# Source: article PMC7819943, “Rice protein-binding microarrays: a tool to detect cis-acting elements near promoter regions in rice”
# The list shows a part of the results.
# Biological target: T1, OsWOX13 (Oryza sativa, UniProt Q5QMM3 1-267)
# T1 sequence: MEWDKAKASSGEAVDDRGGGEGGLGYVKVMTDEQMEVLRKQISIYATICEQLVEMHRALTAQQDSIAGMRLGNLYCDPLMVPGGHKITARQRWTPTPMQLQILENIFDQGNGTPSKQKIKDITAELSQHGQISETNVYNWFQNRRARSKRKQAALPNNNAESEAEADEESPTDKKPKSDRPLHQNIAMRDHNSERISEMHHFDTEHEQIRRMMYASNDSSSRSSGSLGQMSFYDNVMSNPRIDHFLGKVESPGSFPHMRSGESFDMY
# Assay: protein-binding microarray (RPBM); PBS, 2% BSA, 51.3 ng/ul salmon testes DNA, 50 uM zinc acetate, 200 nM TF, 25 C, 1 h; high values mean tight binding
# Conditions: protein: recombinant; tags: N-terminal polyhistidine and DsRed monomer fusion (pET32a); label: CyDye5-dUTP incorporated in the synthesized complementary strand; 3' TTTTT single-stranded linker to array surface; dsDNA, one strand shown
# Summary of the method: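 Transcription factors were each fused at the N-terminus to a polyhistidine tag plus DsRed and expressed in E. coli BL21-CodonPlus before Ni–NTA purification. Binding to a double-stranded custom Agilent array was carried out with 200 nM protein at 25 °C for 1 h in PBS, 2% BSA, salmon testes DNA and 50 µM zinc acetate. The binding signal is per-feature fluorescence intensity, in arbitrary units, on an Axon 4000B scanner.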
row,Sequence,binding signal
1,TACAAATTTGCGCCCTCTAATCATGCATACACATTATGATCGGAGTCACCTAGTGCAG,8700 fluorescence intensity (a.u.)
2,ATAATTACTAAATATTTAATTTAGGCATAACTAATTATCACGGAGTCACCTAGTGCAG,9860 fluorescence intensity (a.u.)
3,ACATGACAGCGATTGTTGATTGATTTCATAGTAGTATATGCGGAGTCACCTAGTGCAG,40000 fluorescence intensity (a.u.)
4,AAAATTGGTGGAAATGGAGTGAATATGGTGAATATGGCAACGGAGTCACCTAGTGCAG,3230 fluorescence intensity (a.u.)
5,TGATTCTAACATGATTGGTCCCATGTGCAGATGAGTAAATCGGAGTCACCTAGTGCAG,13300 fluorescence intensity (a.u.)
6,TGATTGTACGTATTCTGATTGATTGCTTATCGATATCTCACGGAGTCACCTAGTGCAG,26100 fluorescence intensity (a.u.)
7,TTTGCTTGATTTTATAATGCCAAGCTTGAGAAAATGGTGGCGGAGTCACCTAGTGCAG,4990 fluorescence intensity (a.u.)
8,CGCATATTCACTCATGATTAAAATTTTAGTGGAGTTAAATCGGAGTCACCTAGTGCAG,7340 fluorescence intensity (a.u.)
9,GTCTCGGATAATTTAAATTTTGTTCATGTAACTCGCAGGTCGGAGTCACCTAGTGCAG,21600 fluorescence intensity (a.u.)
10,TTTAACACTAATCATCACCAAGCGAACATCAAAGTCAAGTCGGAGTCACCTAGTGCAG,6410 fluorescence intensity (a.u.)
11,AGAGGTGGGATTGAGATTGGAAAATGAATGAAATGTTAGACGGAGTCACCTAGTGCAG,11400 fluorescence intensity (a.u.)
12,GATTTGATAATATAATTTAATCCTCCGTAAATGGGTTTCGCGGAGTCACCTAGTGCAG,9650 fluorescence intensity (a.u.)
13,GGTGATTGCATTTGCTGATGTCAGGTATGCCTATTATATTCGGAGTCACCTAGTGCAG,14600 fluorescence intensity (a.u.)
14,ATTCATGATTATGGAGACGTGGCTAGGGCTCAAGTCCAAACGGAGTCACCTAGTGCAG,6750 fluorescence intensity (a.u.)
15,CAATGATCAATAATGTGATTATGTAAAACTTTATAGGCATCGGAGTCACCTAGTGCAG,20200 fluorescence intensity (a.u.)
16,TAAATTATTATTATTATTATCATCTCCTCCCGCTCCCGCTCGGAGTCACCTAGTGCAG,7690 fluorescence intensity (a.u.)
17,GATCTTATCCGCCTCATGTGATTGCCGTCCTCCATGGGGACGGAGTCACCTAGTGCAG,3400 fluorescence intensity (a.u.)
18,CCCTTAATTATCAAAACCGATGCAATTTGACTCCCTCGGTCGGAGTCACCTAGTGCAG,44000 fluorescence intensity (a.u.)
19,CAATGATGCACTCAATTTGTTGCTTTGATAGTCGCTTTTGCGGAGTCACCTAGTGCAG,5250 fluorescence intensity (a.u.)
20,TTAGATTTGAACTCTTATTTGTTTCAAATATTTTCCCCTTCGGAGTCACCTAGTGCAG,10900 fluorescence intensity (a.u.)
21,CACCTACTTTCACTTATTATCCAATCACAACATTCTTCCACGGAGTCACCTAGTGCAG,4920 fluorescence intensity (a.u.)

row,Sequence,binding signal
1,ACTGATTAGAATATTCTGCAGAAAATAATGTGTACAAATGCGGAGTCACCTAGTGCAG,27000 fluorescence intensity (a.u.)
2,GAATAGACCGAAATTAATTAAGGCAGTAATCACCCAGATGCGGAGTCACCTAGTGCAG,16100 fluorescence intensity (a.u.)
3,AACCATGTGATTTTATTTTAAAAGGACTTTTAATGTATGACGGAGTCACCTAGTGCAG,3740 fluorescence intensity (a.u.)
4,TAAAATAAAATCAGCTTAATTTTAAAGACTTCGTCCACTGCGGAGTCACCTAGTGCAG,3220 fluorescence intensity (a.u.)
5,TTTTAATTAAAATTTGTCCTCCAACAAACTGGCCAAGCCACGGAGTCACCTAGTGCAG,33900 fluorescence intensity (a.u.)
6,CTTTAATTACTTATTTAATTCTATATGTTGCTAAATTAGTCGGAGTCACCTAGTGCAG,34200 fluorescence intensity (a.u.)
7,CCGGGACTGGAATTTGCGGGATTGCGTTCGTAAACCCTACCGGAGTCACCTAGTGCAG,4030 fluorescence intensity (a.u.)
8,CGATCTAACCAATCACAAGATTACATGGCAAATAGCGAAGCGGAGTCACCTAGTGCAG,4840 fluorescence intensity (a.u.)
9,ATGCTAGTGATTGTATGACATGCCTTCAATATGGCCAATGCGGAGTCACCTAGTGCAG,7860 fluorescence intensity (a.u.)
10,TTATCAATGATAGTAATTATATGTCATAGTTGTGAAAAGACGGAGTCACCTAGTGCAG,17300 fluorescence intensity (a.u.)
11,ACTGATTATATAATTGTTCCAATAGAACATATATTCTATTCGGAGTCACCTAGTGCAG,26000 fluorescence intensity (a.u.)
12,TATGAATAATTGAAAGAGAGTGACTGGAGATGGCAAGAGTCGGAGTCACCTAGTGCAG,28200 fluorescence intensity (a.u.)
13,GATAATAGAATAGCTTAATAAAACAATGTACTTGTTGCAGCGGAGTCACCTAGTGCAG,7950 fluorescence intensity (a.u.)
14,TGACCATGATTGACATTTCTATTTGCAAGAGCTCTCACTTCGGAGTCACCTAGTGCAG,34700 fluorescence intensity (a.u.)
15,CATACAAGTCAATCAGCATCCATTTTGGCTGGTAGGACCTCGGAGTCACCTAGTGCAG,6900 fluorescence intensity (a.u.)
16,TGTAGATTGAAAATATACGATTTTAGGGCCTAAATTTTATCGGAGTCACCTAGTGCAG,13300 fluorescence intensity (a.u.)
17,TAAAATTCAAATTTTATATAGTTCAATCAAACTCGGATGGCGGAGTCACCTAGTGCAG,6650 fluorescence intensity (a.u.)
18,GAATGTTATGTAATTGGGTCGGATTGGTATGCATATTGAGCGGAGTCACCTAGTGCAG,15000 fluorescence intensity (a.u.)
19,ATGTTTTACTAATTATGATCTTATTATTGTAGCAACTATACGGAGTCACCTAGTGCAG,3890 fluorescence intensity (a.u.)
20,TATAACTAAAATTACATTTGTAAATTTAGTTAATATGACACGGAGTCACCTAGTGCAG,19400 fluorescence intensity (a.u.)
21,ATCCAATCTAATAGTTTATCAATAGTTATATAATACACCACGGAGTCACCTAGTGCAG,4780 fluorescence intensity (a.u.)
